Results on 167 variants are retold here after the RNAGym collection of RNA variant scans (doi:10.7554/elife.90254).

B1: LINE1-mini (parent)
chain: GGCAGAGCUCAACACAGCGUGGCAAAGUGGCUGUGGCUAGACUGCC

The source gives no read counts; variants with many changes may rest on few reads.

In this series the parent is B1. In words: self-cleavage, relative activity (ratio to wild type); higher = more cleavage; in vitro, sequencing; the parent is a self-cleaving ribozyme.
Turning to C3U C13A U28C U43C, the self-cleavage is 0.03. The figure for C13A A16U C31A is 0.03.

Regarding C31A G33A C45U, the self-cleavage was determined as 0.07. The figure for A6C C10U G21C G22U A24G G40C is 0; for G19U U20G C23U it is 0.36. In the case of C8U C18G C23A G35A it was 0.13; in that of G2A C10G A25C C31G G35C C42A U43G C45A, 0; in that of G22A C31U U32C, 0.1. In the case of C8U C23U G30U C37G C42U it was 0.06. With A11U G22A C46A, the self-cleavage is 0.35. In the case of G2C G36U C42G it was 0.02; in that of U9A C31A C37G U38C, 0.01. The figure for G7A A11C U20A G22C A25G is 0.01; for C31G G35A C45A it is 0.12. The figure for G5U U32C G33A is 0.06. As to G1U G2U A4U G30A G35A G44U, the self-cleavage was 0.04. A14U C23G G33U C37U: the self-cleavage was 0.02. The figure for A6G U20C A39C is 0. In the case of C3U G5U C13U C23A U28C it was 0.05. In the case of G7A A16U C23A A41C U43C it was 0.02; in that of G19A G27C C31A G35A, 0.02.

Consider G5A A6U U9G A16C, for which the self-cleavage turned out to be 0.09. In the case of C10U A12C A14C A41U C46G it was 0.01; in that of G1C G19C U28C G40A, 0. As for G2U G7C G40U, the self-cleavage stood at 0.06. In the case of A14U A16C A26G G27U it was 0; in that of C15A A24G G27U C46A, 0.01; in that of G1A G40U C45A, 0.03.

With C10G A26C U28G, the self-cleavage worked out at 0.13. The figure for U28A G33A A41C is 0. The figure for C8G C13G G40A is 0.01; for A6C C23A U28A G44U it is 0.06. For C15U C18U C23U G29U U43C, the self-cleavage came to 0.07.

For G22A A26G C31A, the self-cleavage stood at 0.09. With U20A C23G G40C, the self-cleavage turned out to be 0.02. In the case of G19C G29U G40C C42U it was 0.04; in that of G5C C8U C10A C31U, 0.04. In the case of C8U G17C G27C it was 0.01; in that of A25U U28G G33U, 0.01; in that of C3G U38G U43C, 0.03. As to G2C U28G U34A, the self-cleavage was 0.03.

In the case of G1U C8G A26U U32G, the self-cleavage amounted to 0.01. In the case of G2U A12U A14U U28G G36U A39G A41G it was 0.03; in that of G2U C3A U9G G27A U38C, 0.07; in that of G2U C15U G33U, 0.03.

Turning to A4G A24U A41C, the self-cleavage is 0.01. Turning to C10U C15U G36A, the self-cleavage is 0.06. In the case of A6G C13A C31G it was 0.03; in that of G22U C23A U34A A39U, 0.27.

For the variant C8G C13A A41G, the self-cleavage stood at 0.1.

Regarding A6U A24G U34G, the self-cleavage worked out at 0.15. For G19A C23G A25C U32G C45U, the self-cleavage was determined as 0.05. In the case of G2C C18G G29C it was 0.16; in that of A4G C23A C31A, 0.54. As to A4U U20G A39U, the self-cleavage worked out at 0.09. Regarding A24C U32C G36U C37U, the self-cleavage was found to be 0.01. Consider A12U G19C G30U, for which the self-cleavage was found to be 0.26. In the case of C3G C10G C13G G17U A24U it was 0.01.

Take A16G C31A G36C U43A: the self-cleavage came out at 0.01. The figure for G7U C31U C37A G40U is 0.02.

Consider G5C G7A A14U A16G G17C G36C C45U C46G, for which the self-cleavage was determined as 0.03. In the case of C8G C13U C37G U38G C45U C46A, the self-cleavage stood at 0.09. In the case of G17A A25C G40C it was 0.02; in that of C3U U28G G36C, 0.02; in that of C18A U20G U43A, 0.04. The figure for C3A G5C G17C U20G is 0.06; for C3A C8U A14G C15A C18A it is 0.37.

As for C18A U20A G22A, the self-cleavage turned out to be 0.68. The figure for G2A G21U A26G A41G is 0.13.

Take G7U C15G G17A C42A: the self-cleavage came to 0.02.

For G2U G7A A11G C15G U20A A41C, the self-cleavage was determined as 0.01. In the case of G7A C13A C15G G17C G29C G36C it was 0.06; in that of G1C U9C C23A A26G G36U, 0.03; in that of G7U A24U C31A G35C, 0.05. The figure for A39U G40C C45G is 0.06; for A12G G29A G30U C37U C42A it is 0.08; for A6G C13G G27A C31A C37G G44C it is 0.04. The figure for G7C A12G C13U A39U is 0.04.

As to G5C C18G G35U, the self-cleavage amounted to 0.04. The figure for G5U C10G A25G is 0.02; for A6G C15G G17C G19C A39G G44A it is 0.01. The figure for C13G C23U C42G is 0.06; for C23A A41G C42A it is 0.12. In the case of A4G A14G U38C C46G it was 0.13; in that of A6U C23U G29U, 1.44. Regarding U34C G35A A41U, the self-cleavage was found to be 0.01. The figure for A4C C13U C23G U28G C31A is 0.04. The figure for U20C A26G G36A is 0.05; for G2U C13A A39C C45G it is 0.01; for C10A G22U A26C G29U G35U G36A C42U it is 0. The figure for G1C C10U A41G is 0.01; for A4C A39U C42U it is 0.09.

For G1C G7A G30U, the self-cleavage came to 0.01. The figure for G5U G7U G17C is 0.11. The figure for A12C U20A U38A U43C is 0.01; for C8G C13U U32C C42A it is 0.07. In the case of G2A G5A C18A G21U U28G it was 0.2; in that of A4C U32A A39C C46G, 0.02. Regarding G22U G33U G35A, the self-cleavage was determined as 0.04. In the case of A11C U20A G22C G27U C42A it was 0. In the case of C10A G33U G44C it was 0.03; in that of A6G A24G C45A, 0.13.

Take C13U G22C A24U U28G: the self-cleavage worked out at 0.04. In the case of C3U C15U A16C A26U A39G C42U it was 0.02.

Turning to G7A C23G G44C, the self-cleavage came out at 0.34. In the case of A12U A14U A24C A41G C45U it was 0.04; in that of C3G G27A U32C, 0.04; in that of C3G G30C C46G, 0.16. Consider A26G G35U A39G, for which the self-cleavage was found to be 0.03. C3U A6G G7A U9C G33A G35U: the self-cleavage turned out to be 0.02.

C10U C13A C15U C23A: the self-cleavage stood at 0. The figure for G2C C3A C15A G19A C37A is 0.05; for C13U U20A U28C U32G C37A A41G U43A it is 0.01. In the case of G2A G7C A11U G29C C31G it was 0.04. Regarding G2A G5A A11C G29C C31A C37A C42A G44A, the self-cleavage was 0.01.

Consider U9C C15A G27U G30C C31A, for which the self-cleavage turned out to be 0.03. The figure for G2A G27C G33U U34A is 0.05. For the variant U32A A41C C46A, the self-cleavage was determined as 0.03. In the case of G30A U32C G44C it was 0.03; in that of G2U C23U C31U G35C, 0.02. Take A4U G5C G33U A41C G44U: the self-cleavage is 0.03. The figure for A6C G7C C13U A24G C37U is 0.09; for A4U A6U G30A G33U A39G it is 0.02; for G40U A41G C46A it is 0.02. The figure for A14G C15U A39C C45A is 0.06; for G30U C31G G40U it is 0.11. In the case of G17C U28G C42A it was 0.11; in that of G5C G19U C31A, 0.01; in that of C8G C15A U43C, 0. Regarding G2U C10U C18A U20C G21C G40A, the self-cleavage turned out to be 0. The figure for U20C G33C G36C is 0.03; for U34G G35U G36A G44U C45A it is 0.04; for A4U C23U C31U U32A G35C it is 0.03. The figure for C8U G19U U28A C42A C46G is 0.01. The figure for U32C G35C G40C C46G is 0.02; for G1C A14C C18G G19C U32G G36C it is 0.01. For the variant A6U G22A A26C, the self-cleavage was 0.36. In the case of G7A C10A G30U C45G it was 0.09; in that of A4C C10G C15A G17U U28A G36U, 0.02. The figure for G5U G7U A26U is 0.03. In the case of C10A A11U C23G G36U it was 0; in that of U9C A11C A24U U32G G35A, 0.01; in that of U28A G30C G44A, 0.13. Consider C8A A16U A24U G40U, for which the self-cleavage amounted to 0.04. As to G5U U9C A25C U43A G44U, the self-cleavage is 0.01. The figure for C8U C10U A24U G27A G36C is 0.05. In the case of A16G A26C G30A C31A it was 0.09. In the case of A14C G29A G33U A41U it was 0.07. For C15A C23U U43C G44U, the self-cleavage was 0.1. The figure for C10U A11C A16G is 0.02; for C3G A4C C8U A25C G27C U43C it is 0.06; for A6G C18U G33A A39U it is 0.01. For the variant G17C G21U A25U, the self-cleavage amounted to 1.14.

In the case of C18G G21U C45G, the self-cleavage was determined as 0.09. Turning to A14U U28C U32A C45G, the self-cleavage came out at 0.15. The figure for C8A C13A A16G A26C U32C U34C is 0.03. In the case of C10A A12G G22U A26C G30U G36C C46A it was 0.01. Consider G2C A16U C37G, for which the self-cleavage worked out at 0.13.

For the variant A14C A16G A26U U32G G44A, the self-cleavage is 0.05.

Regarding A16G G17C G27C G29C, the self-cleavage amounted to 0.07. In the case of C10U A16G A24C U34C A39C G44A C46G it was 0; in that of C8A C13G C46A, 0.02; in that of G1C U34A A41C C42U, 0.01. In the case of C10A G21C G33C U38A G40A it was 0.

For G1U C3G C18U G19A G27U C31G C46A, the self-cleavage was 0.03. As for G2C C8U A14U G17U U20G A26G G36U, the self-cleavage amounted to 0.09. In the case of A12G A16G C45U it was 0.01.
